{"source": "paper PMC11082251", "target": "endogenous p65 (RelA/p65), wild type (human (endogenous in HEK293T)), Q04206", "assay": "co-IP; endogenous proteins in p65^+/+, p65^S180D/KI, p65^S180A/KI and CLK2^−/− HEK293T cells, in the presence or absence of TNF-α stimulation; results normalised to total p65", "settings": "remark: other sources report otherwise", "note": "These are yes or no findings as the source states them, for the method shown. In cells and extracts the contact can be indirect. Some binding calls cover weakened binding; strength is not graded here.", "data": [{"binder": "endogenous IκBα, P25963 1-317 (protein) MFQAAERPQEWAMEGPRDGLKKERLLDDRHDSGLDSMKDEEYEQMVKELQEIRLEPQEVPRGSEPWKQQLTEDGDSFLHLAIIHEEKALTMEVIRQVKGDLAFLNFQNNLQQTPLHLAVITNQPEIAEALLGAGCDPELRDFRGNTPLHLACEQGCLASVGVLTQSCTTPHLHSILKATNYNGHTCLHLASIHGYLGIVELLVSLGADVNAQEPCNGRTALHLAVDLQNPDLVSLLLKCGADVNRVTYQGYSPYQLTWGRPSTRIQQQLGQLTLENLQMLPESEDEESYDTESEFTEFTEDELPYDDCVFGGQRLTL", "values": [{"measurement": "binding", "result": "binds"}]}]}
